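Following 48 hours of exposure in 96-well plates, responses at five concentrations were used to interpolate endpoints linearly. Here, GI50 denotes the concentration required for 50% inhibition of growth.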 Activity calls are given as the source filed them. Cut-off read from the data, not from the text of the source: active = GI50 up to about 1.1 µM and inactive = higher. Square brackets hold non-standard residues; d marks the D form. Peptide text beside a SMILES is read from it. * marks the point of attachment. Iva = CC[C](C)(N)C(=O)O; Boc = CC(C)(C)OC(=O)*; X48 = C1CCC(=NO*)C1
test system: NCI-H322M; assay: growth of human tumour cells (NCI), 48 h

| Structure (SMILES) | GI50 |
| --- | --- |
| O=c1c2cccnc2ncn1CCN1CCCCC1 | inactive: > 100 µM |
| CCOC(=O)N(Cc1cccs1)c1cc(OC)c(OC)c(OC)c1 | inactive: > 100 µM |
| COC(=O)[C@@H](OC(C)=O)[C@@H](OC(C)=O)c1nnc2ccc(Cl)nn12 | inactive: > 100 µM |
| O=C(O)c1cc2c3c(c1)[C@H]1C=CC[C@H]1CN3CC1CC=CC21 (some centres undefined) | inactive: > 100 µM |
| O=c1oc(-c2ccccc2)c(-c2ccccc2)n1-c1ccc(Br)cc1 | inactive: 60 µM |
| COc1ccc(/N=N/C(=O)NC(CC(C)C)C(N)=O)cc1 (centres undefined) | inactive: > 31.6 µM |
| COc1ccc(/C=N/NC(=O)NCCCN(C)C)cc1 | inactive: > 100 µM |
| O=Cc1ccccc1OCCOc1cc(OCCOc2ccccc2C=O)c(OCCOc2ccccc2C=O)cc1OCCOc1ccccc1C=O | inactive: 89.7 µM |
| Cc1cc(N(CCC#N)CCC#N)ccc1/C=C(/NC(=O)/C=C/c1ccccc1)C(N)=O | inactive: > 100 µM |
| O=C(O)COc1ccccc1C(=O)Nc1ccccc1 | inactive: > 100 µM |
| N#CC(N)(C(=O)CCC(=O)Nc1cccc(Cl)c1)c1ccc(Cl)cc1 (centres undefined) | inactive: > 100 µM |
| COc1cc(/C=C(\C)c2ccc3c(c2)OCO3)cc(OC)c1OC | inactive: 94.8 µM |
| N#CCCN(CCNc1ccccc1)C(=O)Nc1ccc(NC(=O)N(CCC#N)CCNc2ccccc2)cc1 | inactive: > 88.3 µM |
| CC(C)=C1C2CC3(C)CCC2(C)CCC13.CC1=CCC2C3(C)CCC2(C(C)C)C1C3 (centres undefined) | inactive: 44.8 µM |
| CC1OC=CC(=O)C1O (centres undefined) | inactive: > 100 µM |
| CNC(=O)N(CCC#N)CCN(CCN(C(=O)NC)c1ccccc1)C(=O)NC | inactive: > 100 µM |
| C=C1C(=O)OC2/C=C(\CO)CC/C=C(\CO)CC(OC(=O)C(C)C)C12 (centres undefined) | inactive: 34.8 µM |
| CSc1ccc(Nc2cc(=O)[nH]c(=O)[nH]2)cc1 | inactive: > 100 µM |
| COC1/C=C\C=C(/C)C(=O)NC2=CC(=O)C(O)=C(CC(C)CC(OC)C(O)C(C)/C=C(\C)C1OC(N)=O)C2=O (centres undefined) | inactive: 9.89 µM |
| CCOC(=O)N1CCc2cc(OC)c(OC)cc2/C1=C/c1ccc(OC)c(OC)c1 | inactive: > 100 µM |
| O=P(Oc1ccccc1)(Oc1ccccc1)Oc1c[nH]c2ccccc12 | inactive: 16.1 µM |
| CC12CCC(=O)N1c1cccnc1N2 (centres undefined) | inactive: > 100 µM |
| CN(C)c1ccc(/C=C/C(=O)c2cc(C(C)(C)C)c(O)c(C(C)(C)C)c2)cc1 | inactive: 1.66 µM |
| COc1cc2oc3cc(=O)cc4oc(-c5ccccc5)cc(c2c2c1CCC(c1ccccc1)O2)c43 (centres undefined) | inactive: > 100 µM |

| Structure (SMILES) | GI50 |
| --- | --- |
| Cn1ccnc1CCc1ccc(F)cc1F | inactive: > 100 µM |
| COc1ccc2c3c1C(=O)CCCC3CO2 (centres undefined) | inactive: > 100 µM |
| O=C1c2ccccc2C(=O)c2c(Nc3cc4c5c(ccc6c7ccc8c9c(cc(Nc%10cccc%11c%10C(=O)c%10ccccc%10C%11=O)c(c3c56)c97)-c3ccccc3C8=O)C(=O)c3ccccc3-4)cccc21 | inactive: 78.3 µM |
| CC1=CC(=O)/C(=C/NC(N)=S)C(=O)O1 | inactive: > 100 µM |
| CCOC(=O)Cn1c(=O)c2cc(C)cc3c(Cl)nc4c(OC)c(OC)cc1c4c32 | inactive: > 100 µM |
| O=S(=O)(O)c1ccc(O)c(/N=N/c2c(O)ccc3ccccc23)c1 | inactive: > 100 µM |
| O=S(=O)(c1ccccc1)N1CN2CN(C1)CN(S(=O)(=O)c1ccccc1)C2 | inactive: > 100 µM |
| CCOC(=O)N/N=C/C1=NN(C(=O)OCC)[S+]([O-])C1C (centres undefined) | inactive: > 100 µM |
| CCN1CCC(O)(c2ccc(C)cc2)C(C(=O)c2ccc(C)cc2)C1 (centres undefined) | inactive: > 100 µM |
| O=C(/C=C/c1ccc(O)c(O)c1)c1cc(O)cc(O)c1 | inactive: 15.3 µM |
| O=C(Nc1ccn(CCI)c(=O)n1)c1ccccc1 | inactive: > 100 µM |
| OC1CCCCCCCCCCC1SCCCCl (centres undefined) | inactive: > 100 µM |
| CC(=O)c1cn(-c2ccc(Cl)cc2)c(=O)c2c(N)n[nH]c12 | inactive: > 100 µM |
| O=C(C[C@@H]1NCCC[C@H]1O)Cn1cnc2cc(Br)c(Cl)cc2c1=O | active: 0.0208 µM |
| CC(C)NC(=O)OCc1c(COC(=O)NC(C)C)c(-c2cc[n+](COC(=O)C3CC3)cc2)n2c1CCC2 | inactive: > 100 µM |
| COc1ccccc1/N=N/C(C(=O)c1ccccc1)C(=O)c1ccccc1 | inactive: 13.6 µM |
| C=C1C(=O)OC2CC3(CO3)C3C(O)C(O)CC3(C)CC12 (centres undefined) | inactive: 49.8 µM |
| CC1(C)CCc2cc3c(cc2O1)OC(C)(C)C1c2c(ccc4c2CCC(C)(C)O4)OC31 (centres undefined) | inactive: > 100 µM |
| NC1=Nc2cc(C(F)(F)F)ccc2Sc2nc3ccccc3n21 | inactive: > 76.6 µM |
| O=C1C(N2CCN(c3ccccn3)CC2)=C(Cl)C(=O)c2ncccc21 | inactive: > 10 µM |
| COc1cc(/C=C\c2ccncc2)cc(OC)c1OC | inactive: > 100 µM |
| CC(C)CC12CC3CCC(CNC1=O)C32C (centres undefined) | inactive: > 100 µM |
| N#C/C(C(=O)Nc1ccc(Cl)cc1)=C(/N)N1CCOCC1 | inactive: > 100 µM |
| CC1(O)/C(=N/O)CC2CC1C2(C)C (centres undefined) | inactive: > 100 µM |

| Structure (SMILES) | GI50 |
| --- | --- |
| CC1(Cl)CCC2(CC(Br)=CC3OC32C)CC1Br (centres undefined) | inactive: 43.2 µM |
| O=Cc1ccc(CCl)cc1 | inactive: 23.4 µM |
| CCN(CC)Cc1ccc2cccnc2c1O | inactive: 5 µM |
| CC(C)=CCc1c2c(c(O)c3c(=O)c4c(oc13)-c1ccc(O)cc1OC4C=C(C)C)C=CC(C)(C)O2 (centres undefined) | inactive: 14.7 µM |
| CCOC(=O)C1=C(C)N(NC(N)=O)C2(N)N(NC(N)=O)C(C)=C(C(=O)OCC)C12C#N (centres undefined) | inactive: > 100 µM |
| COc1ccc(CCc2nccn2C)cc1OC | inactive: > 100 µM |
| O=C(CCCCCNC(=O)c1ccc(Cl)cc1)NO | inactive: 5.47 µM |
| O=C1C2=C(c3ccccc31)C(c1ccccc1)N1C(=O)CSC1=N2 (centres undefined) | inactive: > 68.9 µM |
| C/C=C1\CN2CCC34c5ccccc5N(C)C35OCC4(C(=O)OC)C1CC25 (centres undefined) | inactive: 50 µM |
| CC(=O)Nc1ccc(SC#N)c2c(NC(C)=O)cccc12 | inactive: > 100 µM |
| CC(C)(C)OC(=O)CCC1NC(=O)[C@@H]2Cc3c([nH]c4ccccc34)C(C3CCCCC3)N2C1=O (some centres undefined) | inactive: 45.6 µM |
| COc1ccc(-c2nc(-c3cnccn3)n(Cc3ccccc3)n2)cc1 | inactive: > 100 µM |
| N#C/C(=C\c1ccc2ccccc2c1)c1ccccc1 | inactive: 29.2 µM |
| C=CCN(c1cc(OCc2ccccc2)c2c(c1)c(C)cn2S(=O)(=O)c1ccccc1)S(C)(=O)=O | inactive: > 100 µM |
| C=C1CN(Cc2ccccc2)[C@@H]2CCCCC[C@H](C#N)[C@H]12 | inactive: > 92.3 µM |
| CCOC(=O)C(=O)Nc1c(C)cccc1C(C)C | inactive: > 100 µM |
| ON1CCc2c([nH]c3ccccc23)C1c1ccc(Cl)cc1 (centres undefined) | inactive: 44.2 µM |
| O=C1C2=C(CC3C(C2)C3(Br)Br)C(=O)C2=C1CC1C(C2)C1(Br)Br (centres undefined) | inactive: > 100 µM |
| COc1ccc(NCC(=O)Nn2c(-c3ccccc3)nc3ccccc3c2=O)cc1 | inactive: > 100 µM |
| Cc1cc(S(=O)(=O)NC2=NCCCN2)c(S)cc1Cl | inactive: 62.1 µM |
| Nc1nc(SC/C=C/c2ccccc2)c2[nH]cnc2n1 | inactive: > 100 µM |
| COc1ccc(CNc2nc(NCc3ccc(OC)cc3)nc(Nc3ccccc3)n2)cc1 | inactive: 5 µM |
| OCCOc1ccc(-c2cc(-c3ccccn3)nc(-c3ccccn3)c2)cc1 | active: 0.0668 µM |
| O=C1/C(=C/c2ccccc2)CCc2ccccc21 | inactive: 15 µM |

| Structure (SMILES) | GI50 |
| --- | --- |
| CCc1cc(CCC(=O)Nc2c(C)cccc2C)n[nH]1 | inactive: > 100 µM |
| CC(C)(C)C(=O)Nc1cccc2oc(-c3ccccc3)cc12 | inactive: > 100 µM |
| Cc1ccc(-c2n[nH]c(=O)n2/N=C\c2ccc([N+](=O)[O-])cc2)cc1 | inactive: > 100 µM |
| Nc1ccc(CCN2CCN(CCCc3ccccc3)CC2)cc1 | inactive: > 100 µM |
| CNc1ncccc1Nc1cc(=O)n2c3cccnc3n(C)c2c1 | inactive: > 100 µM |
| NN/C(Cc1ccccc1)=N\NO | inactive: > 100 µM |
| O=[N+]([O-])c1ccc2c(c1)c(S(=O)(=O)O)cc1nonc12 | inactive: > 100 µM |
| O=[As](O)(O)c1ccc(NCc2ccccc2)cc1 | inactive: > 100 µM |
| CC1=CC(=O)c2ccc3c4ccccc4n(C)c3c2C1=O | inactive: 62.2 µM |
| CCCCCC(O)C(O)CCC[C@H](O)[C@H]1CC[C@H]([C@H]2CC[C@H]([C@H](O)CCCCCCCCCCCCC3=C[C@H](C)OC3=O)O2)O1 (some centres undefined) | inactive: 4.61 µM |
| CC1(CO)OC(n2cnc3c(N)ncnc32)C(O)C1O (centres undefined) | inactive: > 100 µM |
| CCN(CC)CCCNc1nccc2c(C)c3[nH]c4ccncc4c(=O)c3cc12 | active: 1.1 µM |
| CCCC(C)c1c(Cl)nc(Cl)nc1Cl (centres undefined) | inactive: 12 µM |
| COC(=O)N1CC2C3C4CC(C(c5ccccc5)=C4c4ccccc4)C3C21 (centres undefined) | inactive: 14.4 µM |
| CC(=O)N/N=C1\NC(=O)C[C@H]2[C@@H]3CC=C4C[C@@H](OC(C)=O)CC[C@]4(C)[C@H]3CC[C@]12C | inactive: 25.5 µM |
| CN(C)CCCNC(=O)c1cc(NC(=O)c2cc(NC(=O)[C@@H]3C[C@H]3C(=O)Nc3cc(C(=O)Nc4cc(C(=O)NCCCN(C)C)n(C)c4)n(C)c3)cn2C)cn1C | inactive: > 100 µM |
| O/N=C1/CCCCC1NO (centres undefined) | inactive: > 100 µM |
| N#Cc1nnc2c3c(-c4ccc(Cl)cc4)c(C#N)c(O)nc3nn2c1N | inactive: 11.8 µM |
| COC(=O)C1Cc2c(n(Cc3ccccc3)c3ccccc23)C(CCC(=O)O)N1C(C)C (centres undefined) | inactive: > 100 µM |
| CCC(C)(NC(=O)C(C)NC(=O)OC(C)(C)C)C(=O)NC(C)C(=O)NC(C)(CC)C(=O)ON=C1CCCC1 (centres undefined) (Boc-A[Iva]A[Iva]-X48; configuration not given here) | inactive: > 100 µM |
| O=C(/C=C(O)/C(=C/C(=O)c1ccccc1)NN=C(c1ccccc1)c1ccccc1)c1ccccc1 | inactive: > 100 µM |
| CCOC(=O)[C@@H](NC(=O)OC(C)(C)C)[C@@H](O)C(=O)OCC | inactive: > 100 µM |
